PubChem BioAssay AID1347073 (National Center for Advancing Translational Sciences (NCATS), 2019)
The campaign covered roughly 45,000 compounds. About 200 (0.44%) were called active. About 7% were inconclusive and are not listed. Calls come from the whole dose curve; as a rule, active = well fitted activation curve with a large enough effect; inconclusive = small, poorly fitted or top-dose-only effect; inactive = no such curve, though single readings can be large or run the other way. Some of the results follow.

test: qHTS of TDP-43 Inhibitors: NCGC Sytravon Library Screen; conditions: yeast TDP-43 toxicity rescue, BacTiter-Glo growth, 24 h; series mostly up to 46.1 µM; growth rescue (activation): at the top concentration; note: 0% is about no effect; nearly all actives have a fitted effect of over 55% in size
Outline: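 TDP-43-expressing yeast, pregrown in raffinose, seeded at OD600 0.02 in galactose medium with compound for 24 hr at 30 deg C. Growth read by BacTiter-Glo luminescence, so rescue of toxicity appears as activation.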

Structure (SMILES) | growth rescue (activation)
CCS(=O)(=O)n1nc(-c2cccnc2)nc1NCc1ccc(F)cc1 | inactive: 1.59%
CCOCCn1c(=O)c2c(nc3n2CCN3c2ccc(C)cc2)n(C)c1=O | inactive: 24.7%
COc1cc(NC(=S)NN2CCN(C)CC2)cc(OC)c1OC | inactive: 0.533%
CCOc1ccc(NC(=O)CN2CCC(n3cnc4cc(F)ccc43)CC2)cc1 | inactive: 1.4%
COCCNC(=O)C1(C)CCCN(C(=O)c2cccc(OC(F)(F)F)c2)C1 (stereo not drawn) | inactive: 8.7%
O=C(COC(=O)CNS(=O)(=O)c1ccccc1)Nc1ccc(Cl)cn1 | inactive: 2.31%
COc1ncccc1-c1cc2nc(NCCNC(C)=O)n(C)c(=O)c2s1 | inactive: 5.15%
CC(C)(C)NC(=O)C(=O)NNC(=O)c1ccc(C(C)(C)C)cc1 | inactive: 4.86%
CC(=O)OCC1=C(C(=O)O)N2C(=O)C(NC(=O)c3ccc(F)cc3)C2SC1 (stereo not drawn) | inactive: 2.48%
FC(F)(F)c1ccccc1-n1c(-c2cnccn2)n[nH]c1=S | inactive: 6.59%
O=c1c2cn(Cc3ccc(F)cc3)c3ccc(F)cc3c-2nn1Cc1ccc(F)cc1 | inactive: 0.691%
CC(C)C(=O)NCCc1c[nH]c2ccccc12 | inactive: -10.7%
CN(C)S(=O)(=O)c1ccc(NC(=O)CN2CCCCCC2)cc1 | inactive: -0.988%
CN(Cc1nccs1)C(=O)C1CCC(=O)N(CCc2cccc(F)c2)C1 (stereo not drawn) | inactive: -8.65%
CC(=O)c1ccc(NC(=S)NC(=O)Cc2ccc(Cl)cc2)cc1 | inactive: 7.47%
COc1cccc(NC(=O)C2(C)CCN2Cc2ccc(SC)cc2)c1 (stereo not drawn) | inactive: 12.6%
COc1cccc(CNC(=O)CC2C(=O)NCCN2Cc2ccoc2)c1OC (stereo not drawn) | inactive: -3.19%
O=C(COC(=O)c1cc2ccccc2cc1O)NCc1ccccc1 | inactive: 4.47%
CC1CCCCC1NC(=S)NC(=O)c1ccccc1Cl (stereo not drawn) | inactive: 16.1%
CCC(CC)C(=O)Nc1cc([N+](=O)[O-])ccc1F | inactive: 7.14%
O=C(NC1CCCc2ccccc21)c1ccccn1 (stereo not drawn) | inactive: 12.2%
CCn1c(SCC(=O)Nc2ccc(C)cc2)nc2nc3c(cc2c1=O)COC(C)(C)C3 | inactive: 6.41%
COc1ccc(/C=N/NC(=O)c2ccc(O)cc2)cc1CN1CCCc2ccccc21 | inactive: 16.6%
O=C(/C=C/c1cccc(Cl)c1)N1CCC(Cc2ccccc2)CC1 | inactive: 2.6%
CC1(C(=O)NS(=O)(=O)c2ccc3c(c2)CCO3)CCN1C(=O)CCC1CCCC1 (stereo not drawn) | inactive: -6.63%
CC1=NN(C(=O)c2ccc(Br)cc2)C(O)(c2ccccc2)C1 (stereo not drawn) | inactive: -2.36%
CCOC(=O)c1sc(NC(=O)C2CC(=O)N(c3ccccc3C)C2)nc1C (stereo not drawn) | inactive: 7.91%

Structure (SMILES) | growth rescue (activation)
CSc1ccccc1C(=O)OCC(=O)Nc1cccnc1Cl | inactive: 29.5%
COc1ccccc1NC(=O)/C(=C/c1ccncc1)NC(=O)c1ccccc1 | inactive: 7.72%
Cc1ccc(C#N)c(SCc2ccccc2[N+](=O)[O-])n1 | inactive: 11.4%
O=C(Nc1cccc2ccccc12)c1ccc(Br)o1 | inactive: 32.4%
CCC(=O)N(Cc1ccc2c(c1)OCO2)Cc1cc2cc(OC)ccc2[nH]c1=O | inactive: -10.2%
C=CCn1c(SCC(=O)Nc2ccc(-c3nc4ccc(C)cc4s3)cc2)nnc1-c1ccncc1 | inactive: -13.6%
N#C/C(=C\c1ccc(Cl)cc1)C(=O)Nc1cccnc1 | inactive: 3.9%
Cc1ccc(C(=O)N(CC#N)CC#N)cc1C | inactive: 8.82%
Cc1sc2nc(COC(=O)c3ccc(N4CCCC4)c([N+](=O)[O-])c3)[nH]c(=O)c2c1C | inactive: 14%
COc1ccc(CNC(=O)Cn2nc(C)n3cccc3c2=O)cc1 | inactive: 8.02%
COc1ccc(S(=O)(=O)N2CCC(c3nc4ccccc4[nH]3)CC2)cc1 | inactive: 0.409%
CN(c1nc2nonc2nc1NC1CC1)C1CCOC1 (stereo not drawn) | inactive: 8.36%
COc1ccc(/C=C/c2nnc(NC(=O)CSc3ccc(Cl)cc3)s2)cc1 | inactive: 2.6%
CCOc1ccc2nc(NC(=O)c3cccc(-c4cc5ccccc5oc4=O)c3)sc2c1 | inactive: 9.74%
CC(C)(C)CC(=O)Nc1nnc(SCC(=O)NCc2cccs2)s1 | inactive: -2.29%
O=C1N=C(N2CCOCC2)S/C1=C/c1ccc(-c2ccc(F)cc2)o1 | inactive: 12.6%
CC(=O)NC1=NN(C(C)=O)C(C)(c2ccc(Br)cc2)S1 (stereo not drawn) | inactive: 3.55%
O=c1c(-c2ccc(Br)cc2)coc2c(CN3CCOCC3)c(O)ccc12 | inactive: 11.7%
Cc1ccc2[nH]c(=O)c(CC=C(Cl)Cl)c(C)c2c1 | inactive: 4.58%
CCOc1ccc(C(=O)NC(=S)NCc2cccnc2)cc1[N+](=O)[O-] | inactive: 26.2%
COc1ccc(N(C(=O)CNC(=O)c2ccco2)C(C(=O)NCC2CCCO2)c2ccccc2)c(OC)c1 (stereo not drawn) | inactive: -15.2%
COc1ccc(N(CC(=O)Nc2cccnc2)S(=O)(=O)c2ccccc2)cc1Cl | inactive: 7.02%
O=C(Cn1nnc(-c2ccccc2)n1)N/N=C/c1cccc([N+](=O)[O-])c1O | inactive: -1.81%
O=C(COC(=O)c1ccc(S(=O)(=O)N2CCOCC2)cc1)NC1CCCCCCC1 | inactive: 20.9%
CCOC(=O)COc1ccc(Br)cc1/C=C/c1[nH]c(=O)[nH]c(=O)c1[N+](=O)[O-] | inactive: -16.1%
CCCNC(=O)C1(C)CCCN(C(=O)/C=C/c2ccccc2)C1 (stereo not drawn) | inactive: -6.06%
